The list shows a part of the results. Sequences were assembled here from the parent chain. Inactive controls read about 0.05.
B1: TEV protease; numbered along this chain (parent)
chain: MGESLFKGPRDYNPISSSICHLTNESDGHTTSLYGIGFGPFIITNKHLFRRNNGTLVVQSLHGVFKVKDTTTLQQHLVDGRDMIIIRMPKDFPPFPQKLKFREPQREERICLVTTNFQTKSMSSMVSDTSCTFPSGDGIFWKHWIQTKDGQCGSPLVSTRDGFIVGIHSASNFTNTNNYFTSVPKNFMELLTNQEAQQWVSGWRLNADSVLWGGHKVFMVKPEEPFQPVKEATQL

Variants of: B1
Assay: raw area under fraction-flipped curve 0-4 h after induction (AUC4h, not background-subtracted), DNA-recorder readout of cleavage of the substrate (dimensionless); higher = more cleavage of the substrate by the protease variant
Conditions: temperature: 34 °C; time window: 0-4 h after rhamnose induction
Experimental: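 In vivo DNA recorder in E. coli TOP10(DE3) ΔrhaA at 34 °C. Each TEVp single-site mutant (parent TEVp 0) is paired with a single-site variant of the 7-mer TEVs (canonical ENLYFQ|S). The substrate sits between flexible linkers in a Bxb1-sfGFP-TEVs-SsrA fusion, so cleavage stabilises Bxb1 and speeds flipping of a recombination array, read by NGS. The value is the raw area under the fraction-flipped curve over 0-4 h after rhamnose induction (AUC4h), with ≥20 reads per time point. It is not background-subtracted; inactive controls average about 0.047.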
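Further: Bxb1 expression induced with 0.2% (w/v) L-rhamnose at OD600 near 0.5, cultures sampled hourly, flipped fraction per protease–substrate barcode pair counted by paired-end Illumina sequencing.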

Row | Variant | area with substrate EALYFQS | area with substrate EDLYFQS | area with substrate EELYFQS | area with substrate EFLYFQS | area with substrate EGLYFQS | area with substrate EHLYFQS | area with substrate EKLYFQS | area with substrate ELLYFQS | area with substrate EPLYFQS | area with substrate EQLYFQS | area with substrate ESLYFQS | area with substrate ETLYFQS | area with substrate EVLYFQS | area with substrate EWLYFQS | area with substrate ECLYFQS | area with substrate EILYFQS | area with substrate EMLYFQS | area with substrate EYLYFQS | area with substrate ERLYFQS
1 | MGESLFKGPRDYNPISSSICHLTNESDGHTTSLYGIGFGPFIITNKHLFRRNNGTLVVQSLHGVFKVKDTTTLQQHLVDGRDMIIIRMPKDFPPFPQKLKFREPQREERICLVTTNFQTKSMSSMVSDTSCTFPWGDGIFWKHWIQTKDGQCGSPLVSTRDGFIVGIHSASNFTNTNNYFTSVPKNFMELLTNQEAQQWVSGWRLNADSVLWGGHKVFMVKPEEPFQPVKEATQL [S135W] | 0.0602 | 0.0644 | 0.0744 | 0.0563 | 0.0473 | 0.0641 | 0.0506 | 0.0571 | 0.0669 | 0.0736 | 0.056 | 0.0522 | 0.0642 | 0.0484 | – | – | – | – | –
2 | MGESLFKGPRDYNPISSSICHLTNESDGHTTSLYGIGFGPFIITNKHLFRRNNGTLVVQSLHGVFKVKDTTTLQQHLVDGRDMIIIRMPKDFPPFPQKLKFREPQREERICLVTTNFQTKSMSSMVSDTSCTFPSGIGIFWKHWIQTKDGQCGSPLVSTRDGFIVGIHSASNFTNTNNYFTSVPKNFMELLTNQEAQQWVSGWRLNADSVLWGGHKVFMVKPEEPFQPVKEATQL [D137I] | 0.0949 | – | 0.125 | – | – | – | 0.0526 | – | – | 0.113 | 0.0924 | – | 0.108 | 0.101 | 0.0945 | 0.119 | 0.166 | 0.106 | –
3 | MGESLFKGPRDYNPISSSICHLTNESDGHTTSLYGIGFGPFIITNKHLFRRNNGTLVVQSLHGVFKVKDTTTLQQHLVDGRDMIIIRMPKDFPPFPQKLKFREPQREERICLVTTNFQTKSMSSMVSDTSCTFPSGDKIFWKHWIQTKDGQCGSPLVSTRDGFIVGIHSASNFTNTNNYFTSVPKNFMELLTNQEAQQWVSGWRLNADSVLWGGHKVFMVKPEEPFQPVKEATQL [G138K] | 0.102 | – | 0.109 | – | – | – | 0.0284 | – | – | 0.0631 | 0.0861 | 0.0846 | 0.0792 | – | – | 0.0833 | – | 0.107 | –
4 | MGESLFKGPRDYNPISSSICHLTNESDGHTTSLYGIGFGPFIITNKHLFRRNNGTLVVQSLHGVFKVKDTTTLQQHLVDGRDMIIIRMPKDFPPFPQKLKFREPQREERICLVTTNFQTKSMSSMVSDTSCTFPSGDSIFWKHWIQTKDGQCGSPLVSTRDGFIVGIHSASNFTNTNNYFTSVPKNFMELLTNQEAQQWVSGWRLNADSVLWGGHKVFMVKPEEPFQPVKEATQL [G138S] | 0.128 | – | 0.0871 | – | 0.078 | – | – | 0.0795 | – | 0.116 | – | – | – | 0.0782 | – | 0.0906 | 0.118 | – | 0.103
5 | MGESLFKGPRDYNPISSSICHLTNESDGHTTSLYGIGFGPFIITNKHLFRRNNGTLVVQSLHGVFKVKDTTTLQQHLVDGRDMIIIRMPKDFPPFPQKLKFREPQREERICLVTTNFQTKSMSSMVSDTSCTFPSGDGCFWKHWIQTKDGQCGSPLVSTRDGFIVGIHSASNFTNTNNYFTSVPKNFMELLTNQEAQQWVSGWRLNADSVLWGGHKVFMVKPEEPFQPVKEATQL [I139C] | 0.114 | – | – | 0.108 | 0.123 | 0.0819 | 0.13 | – | – | 0.153 | 0.128 | 0.142 | 0.11 | – | 0.122 | 0.114 | – | 0.173 | 0.123
6 | MGESLFKGPRDYNPISSSICHLTNESDGHTTSLYGIGFGPFIITNKHLFRRNNGTLVVQSLHGVFKVKDTTTLQQHLVDGRDMIIIRMPKDFPPFPQKLKFREPQREERICLVTTNFQTKSMSSMVSDTSCTFPSGDGRFWKHWIQTKDGQCGSPLVSTRDGFIVGIHSASNFTNTNNYFTSVPKNFMELLTNQEAQQWVSGWRLNADSVLWGGHKVFMVKPEEPFQPVKEATQL [I139R] | 0.106 | – | – | – | – | – | 0.105 | 0.0808 | 0.0888 | 0.0962 | 0.0712 | – | 0.0836 | 0.0782 | – | 0.0798 | – | 0.0971 | 0.0763
7 | MGESLFKGPRDYNPISSSICHLTNESDGHTTSLYGIGFGPFIITNKHLFRRNNGTLVVQSLHGVFKVKDTTTLQQHLVDGRDMIIIRMPKDFPPFPQKLKFREPQREERICLVTTNFQTKSMSSMVSDTSCTFPSGDGITWKHWIQTKDGQCGSPLVSTRDGFIVGIHSASNFTNTNNYFTSVPKNFMELLTNQEAQQWVSGWRLNADSVLWGGHKVFMVKPEEPFQPVKEATQL [F140T] | 0.0609 | – | – | 0.0537 | – | – | 0.0597 | – | 0.0614 | 0.0514 | 0.0618 | – | 0.0609 | – | 0.0571 | – | 0.0683 | – | 0.0848
8 | MGESLFKGPRDYNPISSSICHLTNESDGHTTSLYGIGFGPFIITNKHLFRRNNGTLVVQSLHGVFKVKDTTTLQQHLVDGRDMIIIRMPKDFPPFPQKLKFREPQREERICLVTTNFQTKSMSSMVSDTSCTFPSGDGIFWKHWIFTKDGQCGSPLVSTRDGFIVGIHSASNFTNTNNYFTSVPKNFMELLTNQEAQQWVSGWRLNADSVLWGGHKVFMVKPEEPFQPVKEATQL [Q146F] | 0.131 | – | – | – | 0.103 | 0.115 | – | 0.0912 | – | – | – | – | 0.0925 | – | – | 0.109 | 0.141 | – | –
9 | MGESLFKGPRDYNPISSSICHLTNESDGHTTSLYGIGFGPFIITNKHLFRRNNGTLVVQSLHGVFKVKDTTTLQQHLVDGRDMIIIRMPKDFPPFPQKLKFREPQREERICLVTTNFQTKSMSSMVSDTSCTFPSGDGIFWKHWIQHKDGQCGSPLVSTRDGFIVGIHSASNFTNTNNYFTSVPKNFMELLTNQEAQQWVSGWRLNADSVLWGGHKVFMVKPEEPFQPVKEATQL [T147H] | 0.0604 | 0.081 | 0.0565 | 0.0512 | 0.0649 | 0.063 | 0.0434 | – | 0.0571 | – | 0.064 | 0.0872 | 0.0573 | – | – | 0.0656 | 0.0524 | 0.0564 | –
